Data published in ChEMBL document CHEMBL4513135, “CO-ADD screening of IQOG CSIS (Spain) compounds”.
“And” between values parts separate entries of the source, which are not always exact repeats. Identical values can stand only once. Some of the results follow. Results with a measured potency or affinity are listed apart.

Tested on: Acinetobacter baumannii
Conditions: Concentration 32 ug.mL-1, ASSAY_TEST Inhibition of Bacterial Growth, detection method Absorption (OD600), MEDIA CAMHB, plate type 384well, NBS, CORNING #3640, time 18 hr

For `CCCCCCC(C)NNC(=O)c1cc2ccccc2[nH]1` (centres undefined), the Inhibition was -0.82%.
Compound `N#Cc1c(N)nc2[nH]nc(N)c2c1-c1ccccc1` has an Inhibition of 10.64%.
`C#CCN(Cc1ccccc1)c1nc(N)c(C#N)c(-c2ccccc2)c1C#N` showed an Inhibition of 4.45%.
In the case of `CC#CCN.Cl`, the Inhibition is reported as 4.75%.
`N#CC1(Br)C(=NBr)Oc2ccc3ccccc3c2C1c1ccccc1[N+](=O)[O-]` (centres undefined) gave an Inhibition of -2.36%.
Work on `Cl.NNN1CCc2ccccc21` yielded an Inhibition of 0.05%.
Work on `CC(C)(C)OC(=O)Nc1ccccn1` yielded an Inhibition of 11.92%.
Work on `O=C(Cc1c[nH]c2ccccc12)NNCc1ccccc1` yielded an Inhibition of -0.43%.
In the case of `COc1cc(C2c3c(nc4c(c3N)CCCC4)Oc3ccc4ccccc4c32)cc(OC)c1OC` (centres undefined), the Inhibition is reported as -3.43%.
For `C#CCNc1nc(NCCCCC2CCN(Cc3ccccc3)CC2)c(C#N)cc1C#N`, the Inhibition was -18.35%.
With `c1ccc(-c2nc3c4cnn(-c5ccccc5)c4ncn3n2)cc1` the Inhibition was -4.52%.
`CC(C)NNC(=O)Cc1c[nH]c2ccccc12` showed an Inhibition of -9.52%.
`CCOc1nc(N)c(C#N)c(-c2ccccc2)c1C#N` showed an Inhibition of 4.91%.
Compound `Cc1nc(Nc2ccccc2)c2cnn(-c3ccccc3)c2n1` has an Inhibition of -3.92%.
For `COC(=O)/C(=C/c1ccc(O)cc1)NC(=O)c1ccccc1`, the Inhibition was 6.28%.
With `Cc1cc(Br)cc(C)c1NC=C(C#N)C#N` the Inhibition was 13.39%.
`C#CCN(C)c1nc(N(C)CC#C)c(C#N)cc1C#N` showed an Inhibition of 11.79%.
In the case of `COc1ccc2nc(Cl)c(C=O)cc2c1`, the Inhibition (32 ug/mL) is reported as 15.1% and 13.38%.
`COC(=O)C(=Cc1ccc(OC)cc1)NC(=O)c1ccccc1` showed an Inhibition of 2.13%.
`C#CCN(C)Cc1cc2cc(OCc3ccccc3)ccc2n1C.O=C(O)C(=O)O` was tested, and the Inhibition was 5.78%.
With `COc1nc2ccccc2cc1C=O` the Inhibition was 16.43%.
In the case of `Cc1ccc(CNNC(N)=O)cc1.Cl`, the Inhibition is reported as -2.24%.
`NNC(=O)c1c[nH]c2ccc(OCc3ccccc3)cc12` was tested, and the Inhibition was -9.96%.
Compound `CC(=O)CC(=O)N1[C@@H]2C[C@H]3CCC2(CS1(=O)=O)C3(C)C` has an Inhibition of -1.41%.
Compound `CN(C)c1cccc(C(=O)c2cccc(N(C)C)c2)c1` has an Inhibition of 0.52%.
`O=C1SC(SCc2ccccc2)=NC1=Cc1ccccc1` gave an Inhibition of -2.76%.
`O=C(N/N=C/c1c[nH]c2ccccc12)c1cc2ccccc2[nH]1` showed an Inhibition of -2.06%.
`N#Cc1cc(C#N)c(N2CCC(Cc3ccccc3)CC2)nc1N` was tested, and the Inhibition was 6.74%.
`COc1ccc(C=C2N=C(SC)N(C)C2=O)cc1` showed an Inhibition of 5.41%.
Compound `CC1=C(CO)C(c2ccc(C#N)cc2)C(C#N)=C(N)O1` (centres undefined) has an Inhibition of 7.59%.
In the case of `COc1cc(C2CC2(N)C(=O)O)ccc1O` (centres undefined), the Inhibition is reported as -6.23%.
Compound `COc1ccc(C2C(C#N)=C(N)Oc3c2ccc2ccccc32)c(OC)c1` (centres undefined) has an Inhibition of -1.28%.
Work on `C#CCNc1nc(NC2CCN(Cc3ccccc3)CC2)c(C#N)cc1C#N.Cl` yielded an Inhibition of 10.55%.
Work on `Cn1ccnc1C1c2ccc3cccnc3c2Oc2nc3c(c(N)c21)CCC3` (centres undefined) yielded an Inhibition of -11.24%.
In the case of `CN(C)c1nc(N)c(C#N)cc1C#N.Cl`, the Inhibition (32 ug/mL) is reported as 12.83% and -0.55%.
Work on `COc1ccc(/C=C2/N=C(c3ccccc3)OC2=O)cc1OC` yielded an Inhibition of 1.7%.
Compound `COc1nc(NC(C)=O)c(C#N)c(-c2ccccc2)c1C#N` has an Inhibition of 5.03%.
Work on `COC(=O)C(=Cc1ccc([N+](=O)[O-])cc1)NC(=O)c1ccccc1` yielded an Inhibition of 2.23%.
For `COC(=O)C(C#N)=Cc1ccccc1`, the Inhibition was -0.14%.
With `Nc1c2c(nc3c1C(c1ccc([N+](=O)[O-])cc1)c1ccc4ccccc4c1O3)CCCC2` (centres undefined) the Inhibition was -19.56%.
`C#CCNc1ncc(C#N)c(N)n1` was tested, and the Inhibition was 3.85%.
Work on `N#Cc1c(N)nc(NCCCCC2CCN(Cc3ccccc3)CC2)c(C#N)c1-c1ccccc1` yielded an Inhibition of -6.64%.
In the case of `N#Cc1c(N)nc(Cl)c(C#N)c1-c1ccccc1`, the Inhibition is reported as 1.48%.
For `O=C(O)C(=Cc1ccccc1)NC(=O)c1ccccc1`, the Inhibition was -2.6%.
Compound `Nc1n[nH]c2c1C(c1ccccc1)CC(=O)N2` (centres undefined) has an Inhibition of 15.85%.
`CCOC(=O)c1c(C)nc2nc3c(c(N)c2c1-c1ccc(Cl)cc1)CCCCC3` showed an Inhibition of 5.05%.
`N#CC1=C(N)Oc2c(ccc3ccccc23)C1c1ccccc1` (centres undefined) showed an Inhibition of 4.69%.
Compound `C=CCNCc1cc2cc(OCCCC3CCN(Cc4ccccc4)CC3)ccc2[nH]1.O.O=C(O)C(=O)O.O=C(O)C(=O)O` has an Inhibition of 1.08%.
`COc1ccc(CNNC(=O)c2cc3ccccc3[nH]2)cc1` was tested, and the Inhibition was -6.07%.
`O=C(N[C@H]1CC[C@@H](Br)[C@@H](Br)C1)C(F)(F)F` gave an Inhibition of 11.7%.
`COc1ccc(-c2cc(-c3cc4ccc(F)cc4nc3Cl)cc(=O)[nH]2)cc1` was tested, and the Inhibition was -6.5%.
Work on `C#CCN(C)c1nc(NCC2CCN(Cc3ccccc3)CC2)c(C#N)c(-c2ccccc2)c1C#N` yielded an Inhibition of -10.1%.
`N#Cc1c(N)nc(S)c(C#N)c1-c1ccccc1` was tested, and the Inhibition was -3.37%.
`Cc1ccc(S(=O)(=O)N[C@H]2CC[C@H](O)CC2)cc1` gave an Inhibition of 4.18%.
`CC(=O)NC(=Cc1ccccc1)C(=O)O` gave an Inhibition of -3.63%.
Compound `N#CC1=C(N)Oc2c(ccc3ccccc23)C1c1ccc(Cl)c(Cl)c1` (centres undefined) has an Inhibition of 0.14%.
`O=C(O)c1cc2ccccc2[nH]1` [INDOLE-2-CARBOXYLIC ACID] showed an Inhibition of 2.61%.
`ClCCC1CCN(Cc2ccccc2)CC1` gave an Inhibition of 2.28%.
`CC1=NC(=Cc2ccc([N+](=O)[O-])cc2)C(=O)O1` showed an Inhibition of -6.48%.
`CCOC(=O)C1=C(C)Oc2nc3c(c(N)c2C1c1nccn1C)CCC3` (centres undefined) showed an Inhibition of 0.84%.
In the case of `O=C(Cc1ccccc1)N/N=C/c1c[nH]c2ccccc12`, the Inhibition is reported as 14.43%.
Compound `CN1C/C(=C\Cl)n2c1c(C#N)cc(C#N)c2=O` has an Inhibition of 6.7%.
Work on `Nc1c2c(nc3c1C(c1ccc([N+](=O)[O-])cc1)c1c(ccc4ccccc14)O3)CCCC2` (centres undefined) yielded an Inhibition of -4.73%.
`COC1=C(C#N)CCC(=O)N1` showed an Inhibition of 7.47%.
Compound `O=C(O)c1c[nH]c2ccccc12` has an Inhibition of 1.08%.
Compound `N#Cc1cccnc1N` has an Inhibition of 20.35%.
With `CC/C(C)=N/NC(=O)Cc1c[nH]c2ccccc12` the Inhibition was -5.55%.
For `CC(=O)C(=Cc1ccccc1)C(=O)O[C@H]1C[C@H](C)CC[C@H]1C(C)C`, the Inhibition was -0.02%.
With `O=C1OC(c2ccccc2)=NC1=Cc1ccc([N+](=O)[O-])cc1` the Inhibition was -1.95%.
